# Laboratory results: PubChem BioAssay AID1476 (National Center for Advancing Translational Sciences (NCATS), 2009)
# Values joined by “and” are separate entries in the source; they are usually repeats but may differ in a detail not shown here. Identical values can stand only once. Screen size: about 200,000 compounds; about 4,500 (2.2%) were called active. Inconclusive means that the source gave no clear call. Such entries were picked first, then a sample of the others. Calls come from the whole dose curve; as a rule, active = well fitted inhibition curve with a large enough effect; inconclusive = small, poorly fitted or top-dose-only effect, or effect the other way; inactive = flat fitted curve, though single readings scatter. A potency beside an inconclusive call is a rough fit, not a confirmed value.
# Molecular target: Cruzipain (Trypanosoma cruzi) (UniProt P25779)
# Assay: qHTS Assay for Promiscuous and Specific Inhibitors of Cruzain (without detergent); note: nearly all actives have a fitted effect of over 40% in size;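 for max response, negative = inhibition: plate controls were enzyme without inhibitor for no effect and buffer without enzyme for full effect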
# Details: purified cruzain, Z-FR-AMC fluorescence, no detergent
# Summary of the method: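 Purified cruzain at 1.5 nM, pre-incubated 15 min with compound at room temperature in 100 mM sodium acetate pH 5.5, 5 mM DTT, 0.00005% Triton X-100. Reaction started with 2 uM Z-FR-AMC; AMC fluorescence increase over 60 s gives rate.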
# Potency is the fitted concentration of half-maximal effect; tags give direction and shape of the fitted curve.
# Chain of UniProt P25779 (P25779 whole entry, looked up): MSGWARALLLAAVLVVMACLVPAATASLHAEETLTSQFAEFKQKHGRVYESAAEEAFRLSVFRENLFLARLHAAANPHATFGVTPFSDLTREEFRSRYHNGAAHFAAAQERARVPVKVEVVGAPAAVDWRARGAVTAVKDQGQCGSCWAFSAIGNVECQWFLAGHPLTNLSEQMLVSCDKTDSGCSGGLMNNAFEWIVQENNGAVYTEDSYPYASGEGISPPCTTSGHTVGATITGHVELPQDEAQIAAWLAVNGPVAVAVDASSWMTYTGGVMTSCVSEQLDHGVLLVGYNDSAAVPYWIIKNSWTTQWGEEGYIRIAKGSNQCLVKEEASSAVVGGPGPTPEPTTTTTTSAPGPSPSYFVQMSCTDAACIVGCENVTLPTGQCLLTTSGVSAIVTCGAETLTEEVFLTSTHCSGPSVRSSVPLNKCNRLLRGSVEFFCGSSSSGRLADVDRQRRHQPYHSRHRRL
SMILES,Potency,"max response, negative = inhibition"
CCCCOc1ccc(/C(O)=C2/C(=O)C(=O)N(CCCOC)C2c2ccncc2)cc1C (stereo not given),"inconclusive: 31.6 µM [activator, single point]",
COc1cc(-c2cc(OC)c3c(C)oc(C)c3c(=O)c2)ccc1OC(=O)c1cccc(C)c1,"inconclusive: 39.8 µM [activator, single point]",
C=CC(=O)OCCCC,,inactive: -2.63%
CN(C)C1NC(=O)c2cc(-c3ccccc3)sc2N1 (stereo not given),"inconclusive: 39.8 µM [activator, single point]",
CN(C)/C=C/C(=O)c1ccc(N2CCN(c3ncc(C(F)(F)F)cc3Cl)CC2)cc1,"inconclusive: 39.8 µM [activator, single point]",
O=S(=O)(c1ccc(Cl)c(Cl)c1)N1CCc2nc3ccccc3n2CC1,active: 10 µM,
CC(C)(C)c1ccc(/C=C/C(=O)NC2=NCCS2)cc1,"inconclusive: 39.8 µM [inhibitor, single point]",
COc1ccc(N2C(=O)CSC23CCC(C(C)(C)C)CC3)cc1 (stereo not given),"inconclusive: 31.6 µM [activator, single point]",
Cn1c(=O)c2c(nc(N3CCCCCC3)n2Cc2cccc3ccccc23)n(C)c1=O,"inconclusive: 25.1 µM [activator, single point]",
Cc1ccc(-c2nnc(N3CCN(S(C)(=O)=O)CC3)c3ccccc23)cc1,"inconclusive: 1 µM [inhibitor, single point]",
Cc1ccc(NC(=O)Cn2c(=O)n(Cc3ccccc3)c(=O)c3c(C)c(C(=O)N(C)C)sc32)c(C)c1,"inconclusive: 39.8 µM [activator, single point]",
CCOC(=O)c1ccc(N2C(=O)c3n[nH]c(-c4ccco4)c3C2c2ccccc2OC)cc1 (stereo not given),"inconclusive: 39.8 µM [inhibitor, single point]",
COc1ccc(CNS(=O)(=O)c2ccc(-c3cc(C(F)(F)F)on3)s2)cc1OC,,inactive: -9.36%
COc1ccc(C)c2sc(N(Cc3cccnc3)C(=O)c3cccs3)nc12,"inconclusive: 31.6 µM [activator, single point]",
Cc1ccc(NC(=O)Cn2cc3c(n2)CCCC3)cc1Cl,,inactive: -4.87%
COc1ccc(/C=C/C(=O)NCc2cnn(C)c2C)cc1COc1ccc(Br)cc1,"inconclusive: 31.6 µM [activator, single point]",
O=C(CN1CCc2ccccc21)NC(c1ccccc1)c1ccccc1,active: 25.1 µM,
Cn1c(=O)cc(OCCCC(=O)N2CCN(c3ccccc3)CC2)c2ccccc21,"inconclusive: 39.8 µM [activator, single point]",
COc1ccc(-c2noc(N3CCC(C(=O)N4CCN(c5cccc(OC)c5)CC4)CC3)n2)cc1,,inactive: 0.941%
COC(=O)C1=C(C)NC(C)=C(C(=O)OCCCN2CCC(c3ccccc3)(c3ccccc3)CC2)[C@H]1c1cccc([N+](=O)[O-])c1,,inactive: 1.91% and inactive: 0.15%

SMILES,Potency,"max response, negative = inhibition"
Fc1cccc(CN2CCc3nc(Nc4ccc5c(c4)OCCO5)ncc3C2)c1F,,inactive: -8.47%
COC(=O)[C@@]1(Cc2ccccc2)[C@H]2c3cc(C(=O)N(C)C)n(C)c3C[C@H]2CN1C(=O)c1ccccc1,"inconclusive: 39.8 µM [activator, single point]",
CC(=O)N1CCN(S(=O)(=O)c2cccc(C(=O)NC3CCCc4ccccc43)c2)CC1 (stereo not given),"inconclusive: 31.6 µM [activator, single point]",
CCOC(=O)c1c(-c2ccc(C)cc2)csc1NC1=NS(=O)(=O)c2ccccc21,active: 7.94 µM,
Cc1cccc(N2CCN(C(=O)CCS(=O)(=O)c3ccc4c(c3)CC(=O)N4C)CC2C)c1 (stereo not given),,inactive: 18.6%
COc1ccc(/C=N/NC(=O)c2ccc(CN3c4cccc5cccc(c45)S3(=O)=O)cc2)cc1,active: 15.8 µM,
Cc1ccc(CSc2nnc(SCC(=O)N/N=C/C=C/c3ccccc3[N+](=O)[O-])s2)cc1,"inconclusive: 31.6 µM [inhibitor, single point]",
CN(C)Cc1nc2ccccc2c(=O)n1Cc1nc(C(C)(C)C)cs1,,inactive: 20.2%
S=C(c1cn(CCOc2cccc3ccccc23)c2ccccc12)N1CCCC1,"inconclusive: 31.6 µM [inhibitor, single point]",
O=C(CSc1nc(Nc2ccccc2)c2ccccc2n1)c1ccc(Cl)cc1,"inconclusive: 39.8 µM [inhibitor, single point]",
CC(C)[C@@H](CC(=O)N[C@@H]1CCCC[C@H]1C(=O)N[C@H](CC(=O)N[C@@H](CCC(=O)O)CC(=O)O)Cc1ccccc1)NC(=O)C[C@H](Cc1c[nH]c2ccccc12)NC(=O)[C@@H]1CCCC[C@H]1N,"inconclusive: 39.8 µM [activator, single point]",
CCCCN(CC)CCCNC(=O)c1cc2cc3ccc(OC)cc3nc2o1,"inconclusive: 39.8 µM [inhibitor, single point]",
O=C(CNC(=O)/C=C/c1ccccc1)N=Nc1c(O)n(Cc2ccccc2)c2ccccc12,"inconclusive: 39.8 µM [inhibitor, single point]",
Cn1cccc1C(=O)N1CCC[C@@]2(CCN(C(c3ccccc3)c3ccccc3)C2)C1,,inactive: 1.33%
CC(=O)Nc1ccc(NC(=O)C(C)OC(=O)c2ccc(OCc3c(C)noc3C)cc2)cc1 (stereo not given),"inconclusive: 39.8 µM [activator, single point]",
CC(C)(C)C1CCc2c(sc(NC(=O)c3cccs3)c2C(N)=O)C1 (stereo not given),active: 12.6 µM,
Cc1c(NC(=O)/C=C/c2cn(-c3ccccc3)nc2-c2ccccc2)c(=O)n(-c2ccccc2)n1C,"inconclusive: 39.8 µM [activator, single point]",
Cc1ccccc1NC(=O)CSc1nc2c(oc3ccccc32)c(=O)n1Cc1ccco1,,inactive: -0.341%
CC1(C)C(C=C(Cl)Cl)C1C(=O)Nc1ccc([N+](=O)[O-])cc1 (stereo not given),active: 10 µM,
COc1ccc(/C=C2/SC(c3ccc(C)cc3)=NC2=O)cc1OC,"inconclusive: 31.6 µM [activator, single point]",
